Results from the BET-seq Pho4 binding data (Le et al. 2018).
Some of the results follow. Values were computed here from the reads of four pooled replicates and scatter widely.

Target: T1, Pho4 (S. cerevisiae) (UniProt P07270)
T1 sequence: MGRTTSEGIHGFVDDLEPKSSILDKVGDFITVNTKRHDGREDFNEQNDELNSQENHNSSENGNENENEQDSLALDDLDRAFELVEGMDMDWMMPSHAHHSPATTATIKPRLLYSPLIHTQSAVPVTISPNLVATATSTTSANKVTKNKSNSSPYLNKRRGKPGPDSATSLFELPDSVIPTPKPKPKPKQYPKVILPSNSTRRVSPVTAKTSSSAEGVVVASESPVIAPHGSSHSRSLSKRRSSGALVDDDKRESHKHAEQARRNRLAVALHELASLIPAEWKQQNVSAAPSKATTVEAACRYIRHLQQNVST
Test: relative binding free energy (BET-seq); higher = weaker binding
Details: reference: library average

| Sequence | relative binding free energy [kcal/mol] |
| --- | --- |
| TTCATCACGTGTAGGG | 0.16 |
| GGGTACACGTGCCTGT | 0.09 |
| ACTGTCACGTGGATTG | 0.17 |
| TGGGGCACGTGCGCTA | -0.22 |
| CTTAGCACGTGAGGAG | 0.23 |
| GCGTGCACGTGGGGAG | -0.26 |
| CTTTACACGTGGATGT | 0.11 |
| TTATGCACGTGAGGGG | 0.17 |
| GTTGTCACGTGGATTC | 0.23 |
| TATTTCACGTGCGCGT | 0.17 |
| TAAGTCACGTGGGGAG | 0.06 |
| AGCAGCACGTGCGGTG | -0.14 |
| TCGTGCACGTGTGTCT | -0.07 |
| GGAGTCACGTGCGTGG | 0.18 |
| GTGGCCACGTGGGGCG | -0.1 |
| ATCTGCACGTGTTGGT | 0.19 |
| GGTGACACGTGCTTTG | -0.01 |
| TGGTTCACGTGGAATC | 0.3 |
| AATAGCACGTGTAGGT | -0.03 |
| TGCATCACGTGAGTGG | 0.24 |
| ACGGGCACGTGGGGAG | -0.22 |
| GGTAGCACGTGTAGTT | 0.03 |
| TAACTCACGTGGTTAT | 0.11 |
| TCATTCACGTGGCTTT | 0.19 |
| GTCGGCACGTGTAAGA | 0.18 |

| Sequence | relative binding free energy [kcal/mol] |
| --- | --- |
| GCGTTCACGTGGGGTG | 0.18 |
| GTGTCCACGTGGTTGA | -0.07 |
| TTCTTCACGTGAGTTT | 0.33 |
| GGTTCCACGTGAGATG | 0.3 |
| CTGGTCACGTGTTTGC | 0.11 |
| CGGTTCACGTGTGTAA | 0.2 |
| GGTAGCACGTGGGTAC | -0.14 |
| CTGATCACGTGGTGTA | -0.1 |
| CATGGCACGTGTCGGG | -0.24 |
| TGGCGCACGTGCTGTT | -0.22 |
| GTAGCCACGTGTGATG | 0.06 |
| TCGTGCACGTGGCGGG | -0.06 |
| GTTGCCACGTGCGGCG | -0.08 |
| GGTCACACGTGATAGT | 0.34 |
| GAGGGCACGTGCGGTA | -0.17 |
| GATTTCACGTGGAATG | 0.48 |
| TAGGACACGTGGTCGT | -0.18 |
| GGAGGCACGTGGGATT | 0.02 |
| TTTAACACGTGTGGCT | 0.17 |
| CTGGTCACGTGAGATG | 0.36 |
| GCTGTCACGTGGCATG | 0.05 |
| CTTTGCACGTGTGTTC | 0.1 |
| GCTGACACGTGGTGAG | -0.08 |
| ATAATCACGTGCTGTT | -0.07 |
| GCTGTCACGTGCGTTT | 0.14 |

| Sequence | relative binding free energy [kcal/mol] |
| --- | --- |
| TAGGTCACGTGCTTTT | 0.13 |
| GGGAACACGTGGTTGA | -0.05 |
| TATTACACGTGGATTG | 0.14 |
| ATTACCACGTGTTGGT | 0.06 |
| TTTTTCACGTGTGTAA | 0.28 |
| GTGTACACGTGTATGC | -0.01 |
| TATGTCACGTGAGGGC | 0.39 |
| CCGGGCACGTGAAGGG | -0.06 |
| GTGCACACGTGGTGTT | -0.07 |
| TTAACCACGTGGTGGT | -0.16 |
| TTGATCACGTGAGGGA | 0.32 |
| TTGGTCACGTGATTTG | 0.38 |
| ATGCACACGTGTTGTT | 0.03 |
| GTGTCCACGTGGTTGC | 0.05 |
| GTGGACACGTGGGATC | -0.02 |
| TTAGGCACGTGATTAT | 0.04 |
| GAGGACACGTGGTGTC | -0.01 |
| GAGAACACGTGGTGTA | -0.06 |
| TGTGTCACGTGTTCAT | 0.08 |
| CTGATCACGTGGGCGT | 0.14 |
| CGAAGCACGTGTTGTT | -0.04 |
| AAGGACACGTGTTATA | 0.02 |
| GATGTCACGTGATGAT | 0.4 |
| AGGTTCACGTGTAGAG | 0.28 |
| TATATCACGTGAGATT | 0.32 |

| Sequence | relative binding free energy [kcal/mol] |
| --- | --- |
| TAAGACACGTGTAGTG | -0.04 |
| TAGTGCACGTGTGGCT | -0.03 |
| TCATTCACGTGTCGGT | 0.25 |
| GTATTCACGTGTGAAG | 0.21 |
| ATAGTCACGTGGGATT | 0.03 |
| TGTGGCACGTGCATAG | -0.22 |
| CTGTTCACGTGTTGGT | 0.16 |
| AGAGTCACGTGGTGCT | 0.12 |
| TGATGCACGTGTAATT | 0.2 |
| GTAAGCACGTGCGGTG | -0.17 |
| ATTCGCACGTGTTAGT | 0.05 |
| TATAGCACGTGGAGTT | -0.09 |
| AATTACACGTGTTGCA | 0.3 |
| GTAGGCACGTGATGAG | 0.01 |
| ATGGGCACGTGGGAAA | -0.07 |
| CTTGACACGTGGTTAG | -0.05 |
| GGAAGCACGTGAAGTA | 0.2 |
| CGGTGCACGTGTCTTG | -0.07 |
| CGTTACACGTGGTAGT | 0.03 |
| AGGAGCACGTGGGGCT | -0.25 |
| AACGTCACGTGAGTAG | 0.39 |
| ATTGTCACGTGCATTT | 0.01 |
| ATTTTCACGTGCATAT | 0.19 |
| AAATCCACGTGTGTGT | 0.05 |
| GCTAGCACGTGTGGGG | 0.02 |

| Sequence | relative binding free energy [kcal/mol] |
| --- | --- |
| TAGATCACGTGATAGG | 0.15 |
| TTGTGCACGTGTGGCA | 0.06 |
| TTTATCACGTGGGATG | 0.08 |
| TTCAGCACGTGAGGGA | 0.05 |
| AGGGCCACGTGAGAAG | 0.21 |
| GGGGCCACGTGGAAAT | 0.16 |
| GGTGCCACGTGTATAG | 0.01 |
| ATTCACACGTGTGTTG | 0.04 |
| GCAGGCACGTGAGCGT | 0.09 |
| TTGGGCACGTGATACG | -0.01 |
| GTGTTCACGTGAGGCA | 0.21 |
| AGGGGCACGTGGCGTC | -0.26 |
| GAAGACACGTGGTAGG | 0.02 |
| GTGTCCACGTGTTGTG | 0.08 |
| TGGGGCACGTGCCGTG | -0.28 |
| ATGGTCACGTGAGGTG | 0.21 |
| GGTATCACGTGATAAT | 0.26 |
| ACGGTCACGTGGCTTG | -0.05 |
| TGTTACACGTGGCATT | -0.05 |
| TTGGACACGTGGGAAA | 0.08 |
| ATAGTCACGTGTTGAA | 0.04 |
| GTGCACACGTGGCGGT | 0.01 |
| GTGGGCACGTGCATTC | 0.07 |
| GTAGCCACGTGTGAGG | 0.04 |
| GGAATCACGTGAGTTA | 0.26 |

| Sequence | relative binding free energy [kcal/mol] |
| --- | --- |
| GGTAGCACGTGCGTGT | -0.12 |
| CAGGTCACGTGTAAGG | 0.23 |
| GTTAACACGTGCTAGG | -0.04 |
| AGTAGCACGTGATTTG | 0.09 |
| AAAGACACGTGAGTTG | 0.28 |
| GCGTCCACGTGTGGGA | 0.12 |
| GTTTTCACGTGAATAC | 0.58 |
| AGTGCCACGTGTGATT | 0.01 |
| AGGGACACGTGCGTTA | -0.05 |
| AGTGACACGTGTGATG | 0.02 |
| CTGGACACGTGGGATT | 0.14 |
| GGTTACACGTGGGTCC | 0.11 |
| ATTATCACGTGCGTGA | 0 |
| AGGTTCACGTGTTAAA | 0.35 |
| ATGGTCACGTGGCCTG | -0.08 |
| GATGGCACGTGGGGCG | -0.18 |
| TGCGTCACGTGTAGAG | -0.05 |
| TATGTCACGTGTTATC | 0.19 |
| TGTACCACGTGTGGGG | -0.11 |
| GTCTACACGTGAGAGT | 0.46 |
| TATCTCACGTGTGGTG | 0.17 |
